# Measurements from the supplement of paper PMC8728848.
# The list shows a part of the results.
# Tests used:
# Assay in all cases: glycan array binding signal (z-score within array); higher = stronger binding
# Details in all cases: glycan notation: IUPAC condensed, linker removed
# [1] = biological target: Gal(b1-4)GalNAc(b1-3)[Fuc(a1-2)]Gal(b1-4)GlcNAc
# Method in brief: (§1)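 The binding signal is a Z-score computed within each array. Data were drawn from 3228 arrays in the Consortium for Functional Glycomics database, restricted to those with a known protein sequence. Scores were averaged over arrays of the same protein sequence at different concentrations or buffers, and over linkers, and negative values can be taken as non-binding.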
# Gal(b1-4)Glc = biological target: Gal(b1-4)Glc
# Method in brief: as §1
# Gal(b1-4)Glc6S = biological target: Gal(b1-4)Glc6S
# Method in brief: as §1
# Gal(b1-4)GlcNAc = biological target: Gal(b1-4)GlcNAc
# Method in brief: as §1
# [2] = biological target: Gal(b1-4)GlcNAc(a1-6)Gal(b1-4)GlcNAc
# Method in brief: as §1
# Gal(b1-4)GlcNAc(b1-2)Man = biological target: Gal(b1-4)GlcNAc(b1-2)Man
# Method in brief: as §1
# [3] = biological target: Gal(b1-4)GlcNAc(b1-2)Man(a1-3)Man(b1-4)GlcNAc(b1-4)GlcNAc
# Method in brief: as §1
# [4] = biological target: Gal(b1-4)GlcNAc(b1-2)Man(a1-3)[Gal(b1-4)GlcNAc(b1-2)Man(a1-6)]Man(b1-4)GlcNAc(b1-4)GlcNAc
# Method in brief: as §1
# [5] = biological target: Gal(b1-4)GlcNAc(b1-2)Man(a1-3)[Gal(b1-4)GlcNAc(b1-2)Man(a1-6)]Man(b1-4)GlcNAc(b1-4)[Fuc(a1-6)]GlcNAc
# Method in brief: as §1
# [6] = biological target: Gal(b1-4)GlcNAc(b1-2)Man(a1-3)[Gal(b1-4)GlcNAc(b1-2)Man(a1-6)][Gal(b1-4)GlcNAc(b1-4)]Man(b1-4)GlcNAc(b1-4)[Fuc(a1-6)]GlcNAc
# Method in brief: as §1
# [7] = biological target: Gal(b1-4)GlcNAc(b1-2)Man(a1-3)[Gal(b1-4)GlcNAc(b1-2)Man(a1-6)][GlcNAc(b1-4)]Man(b1-4)GlcNAc(b1-4)[Fuc(a1-6)]GlcNAc
# Method in brief: as §1
# [8] = biological target: Gal(b1-4)GlcNAc(b1-2)Man(a1-3)[GlcNAc(b1-2)Man(a1-6)]Man(b1-4)GlcNAc(b1-4)GlcNAc
# Method in brief: as §1
# [9] = biological target: Gal(b1-4)GlcNAc(b1-2)Man(a1-3)[GlcNAc(b1-4)][Gal(b1-4)GlcNAc(b1-2)Man(a1-6)]Man(b1-4)GlcNAc(b1-4)GlcNAc
# Method in brief: as §1
# [10] = biological target: Gal(b1-4)GlcNAc(b1-2)Man(a1-3)[Man(a1-6)]Man(b1-4)GlcNAc(b1-4)GlcNAc
# Method in brief: as §1
# [11] = biological target: Gal(b1-4)GlcNAc(b1-2)Man(a1-6)Man(b1-4)GlcNAc(b1-4)GlcNAc
# Method in brief: as §1
# [12] = biological target: Gal(b1-4)GlcNAc(b1-2)Man(a1-6)[GlcNAc(b1-2)Man(a1-3)]Man(b1-4)GlcNAc(b1-4)GlcNAc
# Method in brief: as §1
# [13] = biological target: Gal(b1-4)GlcNAc(b1-2)Man(a1-6)[Man(a1-3)]Man(b1-4)GlcNAc(b1-4)GlcNAc
# Method in brief: as §1
# [14] = biological target: Gal(b1-4)GlcNAc(b1-2)[Gal(b1-4)GlcNAc(b1-4)]Man(a1-3)[Gal(b1-4)GlcNAc(b1-2)Man(a1-6)]Man(b1-4)GlcNAc(b1-4)GlcNAc
# Method in brief: as §1
# [15] = biological target: Gal(b1-4)GlcNAc(b1-2)[Gal(b1-4)GlcNAc(b1-4)]Man(a1-3)[Gal(b1-4)GlcNAc(b1-2)[Gal(b1-4)GlcNAc(b1-6)]Man(a1-6)]Man(b1-4)GlcNAc(b1-4)GlcNAc
# Method in brief: as §1
# [16] = biological target: Gal(b1-4)GlcNAc(b1-2)[Gal(b1-4)GlcNAc(b1-4)]Man(a1-3)[GlcNAc(b1-4)][Gal(b1-4)GlcNAc(b1-2)Man(a1-6)]Man(b1-4)GlcNAc(b1-4)GlcNAc
# Method in brief: as §1
# [17] = biological target: Gal(b1-4)GlcNAc(b1-2)[Gal(b1-4)GlcNAc(b1-4)]Man(a1-3)[GlcNAc(b1-4)][Gal(b1-4)GlcNAc(b1-2)[Gal(b1-4)GlcNAc(b1-6)]Man(a1-6)]Man(b1-4)GlcNAc(b1-4)GlcNAc
# Method in brief: as §1
# [18] = biological target: Gal(b1-4)GlcNAc(b1-2)[Gal(b1-4)GlcNAc(b1-6)]Man(a1-6)[Gal(b1-4)GlcNAc(b1-2)Man(a1-3)]Man(b1-4)GlcNAc(b1-4)GlcNAc
# Method in brief: as §1
binder,measurement,setting,value
CpGal16 (Clavelina picta) (protein) MAKMITNYVGKRIECIMVATDMMSTVFSLASATGDLPFYINFRQRENSIVMNTRVHGKWQYEKSQSSGGMNFYEPFRLVVEVRPSVFKVTVSTMGEEDGITFNLQYSQITIKPDEIVAMHLGYCNLRSELLVTDL,glycan array binding signal (z-score),[1],-0.346
same,glycan array binding signal (z-score),Gal(b1-4)Glc,-0.209
same,glycan array binding signal (z-score),Gal(b1-4)Glc6S,0.941
same,glycan array binding signal (z-score),Gal(b1-4)GlcNAc,-0.368
same,glycan array binding signal (z-score),[2],-0.346
same,glycan array binding signal (z-score),Gal(b1-4)GlcNAc(b1-2)Man,-0.299
same,glycan array binding signal (z-score),[3],-0.257
same,glycan array binding signal (z-score),[4],-0.143
same,glycan array binding signal (z-score),[5],-0.202
same,glycan array binding signal (z-score),[6],-0.147
same,glycan array binding signal (z-score),[7],-0.043
same,glycan array binding signal (z-score),[8],-0.159
same,glycan array binding signal (z-score),[9],-0.358
same,glycan array binding signal (z-score),[10],-0.273
same,glycan array binding signal (z-score),[11],-0.232
same,glycan array binding signal (z-score),[12],-0.389
same,glycan array binding signal (z-score),[13],-0.432
same,glycan array binding signal (z-score),[14],0.283
same,glycan array binding signal (z-score),[15],0.087
same,glycan array binding signal (z-score),[16],-0.179
same,glycan array binding signal (z-score),[17],-0.231
same,glycan array binding signal (z-score),[18],-0.141
